Test results reported in ChEMBL document CHEMBL1143136 (J Med Chem, 2008).

Target: Kinesin-like protein KIF11 (Homo sapiens, UniProt P52732)
Experiment: Inhibition of human Eg5 basal ATPase activity
Settings: for Ki: read-out: Ki app

SMILES	Activity	Ki [nM]
CC(=O)SC(c1ccccc1)(c1ccccc1)c1ccccc1	inactive	–
Cc1ccc(C(SC[C@H](N)C(=O)O)(c2ccccc2)c2ccc(C)cc2)cc1	–	2000
N[C@@H](CSC1(c2ccc(Cl)cc2)c2ccccc2-c2ccccc21)C(=O)O	inactive	–
N[C@@H](CSC(c1ccccc1)(c1ccccc1)c1ccc(Br)cc1)C(=O)O	–	250
N[C@@H](CSC(c1ccccc1)(c1ccccc1)c1ccccc1)C(=O)NCC(=O)O	–	1500
CCSC(c1ccccc1)(c1ccccc1)c1ccccc1	inactive	–
N[C@@H](CSC(c1ccccc1)(c1ccc(-c2ccccc2)cc1)c1ccc(-c2ccccc2)cc1)C(=O)O	–	35000
N[C@@H](CSC(c1ccccc1)(c1ccccc1)c1ccc2ccccc2c1)C(=O)O	–	200
O=C(O)C(CSC(c1ccccc1)(c1ccccc1)c1ccccc1)NC(c1ccccc1)(c1ccccc1)c1ccccc1 (configuration not stated)	inactive	–
CC(=O)NC(CSC(c1ccccc1)(c1ccccc1)c1ccccc1)C(=O)O (configuration not stated)	inactive	–
CC(=O)CCSC(c1ccccc1)(c1ccccc1)c1ccccc1	inactive	–
OC(c1ccccc1)(c1ccccc1)c1ccccc1	inactive	–
O=C(O)C(CSC(c1ccccc1)(c1ccccc1)c1ccccc1)NC(c1ccccc1)c1ccccc1 (configuration not stated)	inactive	–
CC(NC(=O)[C@@H](N)CSC(c1ccccc1)(c1ccccc1)c1ccccc1)C(=O)O (some centres not stated)	–	1500
CC(c1ccccc1)(c1ccccc1)c1ccccc1	inactive	–
N[C@@H](CSC(c1ccccc1)(c1ccccc1)c1ccccc1)C(=O)OC(c1ccccc1)c1ccccc1	–	7000
CC(=O)N[C@@H](CSC1(c2ccccc2)c2ccccc2-c2ccccc21)C(=O)O	inactive	–
COC(c1ccccc1)(c1ccccc1)c1ccccc1	inactive	–
O=C(O)C(CSC(c1ccccc1)(c1ccccc1)c1ccccc1)/N=C/c1cccs1 (configuration not stated)	inactive	–
CCC(SC[C@H](N)C(=O)O)(c1ccccc1)c1ccccc1	–	450
OCCSC(c1ccccc1)(c1ccccc1)c1ccccc1	inactive	–

SMILES	Activity	Ki [nM]
N[C@@H](CSC(c1ccccc1)(c1ccccc1)c1ccccc1)C(=O)N[C@@H](CSC(c1ccccc1)(c1ccccc1)c1ccccc1)C(=O)O (H-Cys(Trt)-Cys(Trt)-OH)	–	6750
COC(=O)CSC(c1ccccc1)(c1ccccc1)c1ccccc1	inactive	–
SC(c1ccccc1)(c1ccccc1)c1ccccc1	inactive	–
COC(=O)CCSC(c1ccccc1)(c1ccccc1)c1ccccc1	inactive	–
N[C@@H](CSC(c1ccccc1)(c1ccccc1)c1cccc2ccccc12)C(=O)O	–	4000
ClC(c1ccccc1)(c1ccccc1)c1ccccc1	inactive	–
CC(C)(SC(c1ccccc1)(c1ccccc1)c1ccccc1)C(N)C(=O)O (configuration not stated)	–	5230
CC(C)(C)OC(=O)NC(CSC(c1ccccc1)(c1ccccc1)c1ccccc1)C(=O)O (configuration not stated)	inactive	–
N[C@@H](CSC(c1ccccc1)(c1ccccc1)c1ccc(F)cc1)C(=O)O	–	150
O=C(O)CCSC(c1ccccc1)(c1ccccc1)c1ccccc1	inactive	–
N[C@@H](CSC(c1ccccc1)(c1ccccc1)c1ccc2c(c1)OCO2)C(=O)O	–	200
N[C@@H](CSC(c1ccccc1)(c1ccccc1)C1CCCCC1)C(=O)O	–	175
N[C@@H](CSC(c1ccccc1)(c1ccccc1)c1ccc(CO)cc1)C(=O)O	–	14000
Cc1ccccc1SC(c1ccccc1)(c1ccccc1)c1ccccc1	inactive	–
COC(=O)[C@H](CC(C)C)NC(=O)[C@@H](N)CSC(c1ccccc1)(c1ccccc1)c1ccccc1 (H-Cys(Trt)-Leu-OMe)	–	1750
NCCCSC(c1ccccc1)(c1ccccc1)c1ccccc1	inactive	–
NCCCCSC(c1ccccc1)(c1ccccc1)c1ccccc1	inactive	–
Nc1ccc(C(c2ccccc2)(c2ccccc2)c2ccccc2)cc1	inactive	–
N[C@@H](CSC1(c2ccccc2)c2ccccc2-c2ccccc21)C(=O)O	–	1500
N[C@@H](COC(c1ccccc1)(c1ccccc1)c1ccccc1)C(=O)O	–	750
N[C@@H](CSC(c1ccccc1)c1ccccc1)C(=O)O	inactive	–

SMILES	Activity	Ki [nM]
COC(=O)[C@@H](NC(=O)[C@@H](N)CSC(c1ccccc1)(c1ccccc1)c1ccccc1)C(C)C (H-Cys(Trt)-Val-OMe)	–	600
NC(c1ccccc1)(c1ccccc1)c1ccccc1	inactive	–
Cc1ccc(C2(SC[C@H](N)C(=O)O)c3ccccc3-c3ccccc32)cc1	–	13000
Cc1ccc(C(SC[C@H](N)C(=O)O)(c2ccc(C)cc2)c2ccc(C)cc2)cc1	–	1000
CC(C)(O)CC(c1ccccc1)(c1ccccc1)c1ccccc1	inactive	–
CCCCC(SC[C@H](N)C(=O)O)(c1ccccc1)c1ccccc1	–	175
CC(C)C(SC[C@H](N)C(=O)O)(c1ccccc1)c1ccccc1	–	150
CC(SC[C@H](N)C(=O)O)(c1ccccc1)c1ccccc1	–	2500
N[C@@H](CSC1(c2cccc3ccccc23)c2ccccc2-c2ccccc21)C(=O)O	–	900
Cc1ccc(C(SC[C@H](N)C(=O)O)(c2ccccc2)c2ccccc2)cc1	–	100
N[C@@H](CSC(c1ccccc1)(c1ccc(CO)cc1)c1ccc(CO)cc1)C(=O)O	–	23000
BrC(c1ccccc1)(c1ccccc1)c1ccccc1	inactive	–
N[C@@H](CSC(c1ccccc1)(c1ccccc1)c1ccc(O)cc1)C(=O)O	–	23000
COC(=O)[C@@H](N)CSC(c1ccccc1)(c1ccccc1)c1ccccc1	–	120
NCCSC(c1ccccc1)(c1ccccc1)c1ccccc1	–	150
CCC(c1ccccc1)(c1ccccc1)c1ccccc1	inactive	–
COc1ccc(C(SC[C@H](N)C(=O)O)(c2ccccc2)c2ccc(OC)cc2)cc1	–	600
c1ccc(CSC(c2ccccc2)(c2ccccc2)c2ccccc2)cc1	inactive	–
N[C@@H](CSC(c1ccccc1)(c1ccccc1)c1ccc(Cl)cc1)C(=O)O	–	200
N[C@@H](CSC1(c2ccc(F)cc2)c2ccccc2-c2ccccc21)C(=O)O	–	6000

Activity calls are given as the source filed them. The calls are words filed in the database; no cut-off is given here. Where a SMILES comes first, the peptide text is derived from it. The star is where a group is joined. Trt = c1ccc(C(c2ccccc2)(c2ccccc2)*)cc1
